The labels stand for the following.
B1: LINE1-mini (parent)
chain: GGCAGAGCUCAACACAGCGUGGCAAAGUGGCUGUGGCUAGACUGCC

Read counts are not given, so values of variants with three or more changes are uncertain.

The variants in the data set derive from B1. Nature of the data set: self-cleavage, relative activity (ratio to wild type); higher = more cleavage; in vitro, sequencing; the parent is a self-cleaving ribozyme.
Consider U28G G30C C42U, for which the self-cleavage amounted to 0.04. Under G30U U32C C42A stands 0.04; under G30U G35C A41U, 0.04; under G29U G35A G36C, 0.51. Under G29C U38A G40A C45U stands 0.07. As for U28C C31G U43C, the self-cleavage was determined as 0.05. G30A A39C A41G: the self-cleavage worked out at 0.1.

As to G27U U38A G40C, the self-cleavage turned out to be 0. Under U28A C31G C45U stands 0.2. Under G29U C45G C46A stands 0.42. Under G29C G30C U34C C42U C45A stands 0.03; under G30U U38G C46A, 0.01; under U28A A39U C42A, 0.11. On to G29U G30C U32G, for which the self-cleavage was 0.21.

Regarding G29C G30A C45A, the self-cleavage is 0.36. Under G29U G36C A39U stands 0.04; under U28G A39G C46G, 0.05; under G29C U32C U38A, 0.78. As for U28C G36C U38A G40C, the figure is 0.19; as for U28A G30U C31U, 1.77; as for G29U U34A C42U, 0.05. For the variant G30A G40U U43C, the self-cleavage turned out to be 0.02. As for G29U C31A A41C, the figure is 0.04; as for G29U G30U G44C, 0.13; as for C31A G33A G35C U38A U43A C46U, 0.08.

Consider U28C G35A U38G, for which the self-cleavage is 0.01. On to G30C G40U U43G C46A, for which the self-cleavage amounted to 0.05. Take G29C U34A A39U: the self-cleavage is 0.04. Regarding G29U U34G G35A U43C, the self-cleavage was 0.04.

Consider U28C U32A A41C G44A, for which the self-cleavage was determined as 0.07. Consider U28G G33A G35A, for which the self-cleavage was 0.1. In the case of G30A C42A U43A, the self-cleavage worked out at 0.04. As for G29A C31A A39C, the figure is 0.18. Turning to U28A U38C A39G, the self-cleavage came out at 0.1. For the variant G29C G33U C46G, the self-cleavage is 0.05. With G29A C31G G35A C42G, the self-cleavage is 0.06. Under G30A G33A A39G C42U U43G stands 0.06. With G30A U32C G40A C42U, the self-cleavage was determined as 0.03.

For U28A G35C A39G, the self-cleavage was determined as 0.02. Under G29U C31U C46A stands 0.1; under G30U G35U G44C, 0.05; under U28A G33A U34G, 0.11. On to G29U C31G G44U C45A, for which the self-cleavage is 0.19. Take G29A G35U U43A: the self-cleavage amounted to 0.03.

In the case of U28A G30A G36U, the self-cleavage was found to be 0.09.

As for U28A G36A A39U C42A C46U, the self-cleavage was 0.06. Under G30A U34G G44C C46U stands 0.01; under G29A U32A G40C, 0.08; under G29A G36C A39C, 0.05.

Regarding U28G G35U C37A, the self-cleavage was found to be 0.19. For G30U G35U G40U, the self-cleavage was determined as 0.03. Under G30U U32A C42A C45U stands 0.03.

As for U28C G29U C37G, the self-cleavage amounted to 0.04. Take G29C C31U U43C: the self-cleavage came to 0.17. Under G29U C42A G44C C46G stands 0.14; under U28G U32A U34C C45A, 0.03; under G29A G30U G40U, 0.07. Under G29C G40A A41G stands 0.06; under G29C G30A U38C, 0.22. As for G29U C31G A41G, the figure is 0.1; as for G29A U32G U38C, 0.03; as for C31A C37G C46U, 0.02. As for G30U U32A G36A A39C G40C A41U, the self-cleavage is 0.14. Take G30C C45G C46G: the self-cleavage stood at 0.02. Under G30C C45G C46A stands 0.06; under G30C U38C A41C, 0.01. As for G29C G30C G40A, the figure is 0.08; as for G29U C31U C37A A39U, 0.04. Under G30A C31A C45G stands 0.38; under U28C U38A G40U, 0.15. Take G30U C37G C42A: the self-cleavage amounted to 0.11. On to G30A A41C C42A, for which the self-cleavage is 0.01. As to C31A G33C C37U C46A, the self-cleavage was 0.11. Under U28C C31G G36A A39C G40C stands 0.02; under U28A U32C C46U, 0.08. Regarding U28A U32C C46G, the self-cleavage was 0.12. Under G27U G30A G33A A41G stands 0.07; under G29U C31U U34C, 0.02.

G30A C31U U43A C46U: the self-cleavage stood at 0.01. In the case of U28A C37A U38C, the self-cleavage came out at 0.01.

For the variant G30A C31U G35U U38G A41U, the self-cleavage was 0.01. As for G30A C31G U34G, the figure is 0.03; as for G29U G36A C37G, 0.02.

As for G29U U32C C45G, the self-cleavage was determined as 0.05. As to G27U G40C C45U, the self-cleavage amounted to 0.02. For the variant G30C C42U C45A, the self-cleavage came out at 0.02. As for G30C C31U C37U, the figure is 0.03. Take G29U G30C C42U: the self-cleavage came to 0.03. Regarding U28A G30A G35U U38A, the self-cleavage is 0.01. Under G27U C31A U34C A39C stands 0.19.

In the case of G30U C31A U32G, the self-cleavage was found to be 0.01.

On to G30A C31G A39C, for which the self-cleavage was 0.03. For U28C U32A C42G, the self-cleavage is 0.11. As for G30C C37U U38A, the figure is 0; as for G29U G33A A41C, 0.05.

Consider U28C U32A G44A, for which the self-cleavage turned out to be 0.15. Take G30U A39C C45U: the self-cleavage is 0.06. G29A C42U C45A: the self-cleavage was found to be 0.02. For G29A C31A U32C, the self-cleavage was 0.06.

For the variant G29C G36A A39C, the self-cleavage came out at 0.2. As for C31A G33C C45U, the figure is 0.06; as for G30C G33U G40A U43C, 0.19. As for U28A G33U C37G G40C, the figure is 0.03; as for G30A G33A A39U, 0.04; as for G29U C31A C45A, 0.03.

With G27U U28G U32G C42A, the self-cleavage was 0.01. Under G29C C31U A39G stands 0.05; under U28G G29A C37A, 0.03; under G29U C31A G35U G36A G40U A41U, 0.04. As for G30A A39U C42A, the figure is 0.17; as for G29C U32C G33C, 0.05. Regarding G27U G29C G36C G44U, the self-cleavage is 0.06. Under G30U U34C G36C G44C C46U stands 0.05. With G29A U34G G36C, the self-cleavage amounted to 0.07. Under G30C C31G C42U stands 0.05. Under G30C G36C A41G stands 0.08. Under G29C G30A C37A stands 0.08.

As for U28G G35A G44U, the self-cleavage came to 0.08.

For the variant G30U A39C C46G, the self-cleavage came out at 0.23. Consider G27U U28G G29C A39C, for which the self-cleavage was determined as 0.05.

U28C G30C C42G: the self-cleavage worked out at 0.02. Regarding U28G C37A G40C, the self-cleavage is 0.11. Under U28G G30C C46A stands 0.07. For the variant G29C C31A U34A, the self-cleavage came out at 0.04. In the case of G29C U34A G36U C46U, the self-cleavage was 0.01. As for G29U G40A A41G G44A, the figure is 0.16; as for G29C C31U U38A A41U, 0.06; as for G30A G35A A39G, 0.03. As for G29A G44U C45G, the figure is 0.21. G29C U34A A41C: the self-cleavage came to 0.06. As for G29A G30A C45A, the figure is 0.3; as for G29C U32C G44A, 0.17.

As for G30U A39C A41C, the self-cleavage was 0.03.

G29A G35C C42G: the self-cleavage is 0.05. On to U28A C31G U32G G36U, for which the self-cleavage was found to be 0.04. Take G30U G33C C46A: the self-cleavage was 0.01. As for G30A G44U C45U, the figure is 0.17. In the case of G30C C42A C45A, the self-cleavage amounted to 0.02. As for U28C G29U A41C, the figure is 0.03. As for C31A G35C G40A, the figure is 0.01; as for U28C C37G C42A, 0.04; as for G30A C31G C37A, 0.03.

As for C31A C45A C46A, the self-cleavage was determined as 0.02.

On to U28A G29A G40U, for which the self-cleavage turned out to be 0.18. Under G29U G36A C46U stands 0.04; under G30C C31U A39C, 0.06; under G30U A41G C45G, 0.01. As for C31A G33U G36A, the figure is 0.11; as for G30U G35C C45A, 0.04; as for G30A U34A C45G, 0.06. Consider G29U C31A C37U, for which the self-cleavage was 0.05. On to G29A G35A U43C, for which the self-cleavage was 0.04.

In the case of G29U C42G G44A C45G, the self-cleavage came out at 0.06. Turning to G29A C37U C42U, the self-cleavage turned out to be 0.07. As for U28C G29C G40A, the figure is 0.03; as for G30C C31G G36U, 0.07. Consider G27U G33A A41G, for which the self-cleavage came out at 0.12. As for G30A G36C G40U, the figure is 0.05. Take G30C A39U U43A: the self-cleavage worked out at 0.03. Under G29C C31A G33U stands 0; under C31A G35C C37G, 0.05; under G30A C31A U43G G44U, 0.12.

Consider G30C C31G U32G C42A, for which the self-cleavage worked out at 0.02. G30C G33U A41U: the self-cleavage is 0.2. Under U28G U38G C42G stands 0.01; under U28C G29A C31G, 0.06.

With C31A A39U A41C, the self-cleavage stood at 0.08.

The record behind these values is the RNAGym collection of RNA variant scans (doi:10.7554/elife.90254).
